According to the supplement of paper PMC10037445:
Where “and” joins values, the source holds several entries; their conditions need not be identical. Equal values may be shown once. ± gives the standard deviation of the averaged measurements. Over roughly 2,900 compounds, “IRF Lucia reporter activity, fold change vs agonist alone” has its median near 0.9; the highest 2% begin near 2.8. The list shows a part of the results.

Experiments:
[1] = tested on: RAW-Dual; assay: IRF Lucia reporter activity, fold change vs agonist alone; cytotoxicity flag (confluency mask): not cytotoxic; higher = enhanced IRF activity
Outline: (§1)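 Supernatant from RAW-Dual macrophages was read after 20 hours for IRF by QuantiLuc luminescence and for NF-κB by QuantiBlue absorbance at 620 nm. The cells (50,000 cells/well in DMEM, 384-well plates, 37 °C, 5% CO2) had received 50 nL of library stock by pin tool and, 1 h later, a PRR agonist. Reporter activity is expressed relative to agonist-alone wells as fold change, and wells were flagged cytotoxic if IncuCyte confluency was under 70% of agonist controls in both mask sets.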

[2] = tested on: RAW-Dual; assay: IRF Lucia reporter activity, fold change vs agonist alone; higher = enhanced IRF activity; settings: agonist: MPLA (TLR4) […]
Outline: as §1

[3] = tested on: RAW-Dual; assay: IRF Lucia reporter activity, fold change vs agonist alone; cytotoxicity flag (confluency mask): cytotoxic (confluency <70% of control); higher = enhanced IRF activity
Outline: as §1

[4] = agonist: 3'3'-cGAMP (STING) 10 ug/mL
[5] = library stock concentration (final ~1000-fold dilution): 10 mM, cytotoxicity flag (confluency mask): not cytotoxic

Cl.OC(CCCN1CCCCC1)(c1ccccc1)c1ccccc1 (library stock concentration (final ~1000-fold dilution): 10 mM)
IRF Lucia reporter activity [1, 4]: 1.15 | IRF Lucia reporter activity ([1]; agonist: LPS (TLR4) 0.1 ug/mL): 1.26

Cl.OC(CCCN1CCCCC1)(c1ccccc1)c1ccccc1
IRF Lucia reporter activity [2, 5]: 1.03

NC(CSCCCO)C(=O)O (stereo unspecified) (library stock concentration (final ~1000-fold dilution): 10 mM water)
IRF Lucia reporter activity [1, 4]: 0.986 | IRF Lucia reporter activity ([1]; agonist: LPS (TLR4) 0.1 ug/mL): 0.871

NC(CSCCCO)C(=O)O (stereo unspecified)
IRF Lucia reporter activity ([2]; library stock concentration (final ~1000-fold dilution): 10 mM water, cytotoxicity flag (confluency mask): not cytotoxic): 1.32

CCC(c1ccc(O)cc1)C(CC)c1ccc(O)cc1 (stereo unspecified) (library stock concentration (final ~1000-fold dilution): 10 mM)
IRF Lucia reporter activity [1, 4]: 1.07 | IRF Lucia reporter activity ([1]; agonist: LPS (TLR4) 0.1 ug/mL): 1.01

CCC(c1ccc(O)cc1)C(CC)c1ccc(O)cc1 (stereo unspecified)
IRF Lucia reporter activity [2, 5]: 1.14

Cc1cnc(Nc2ccc(N3CCN(C)CC3)cc2)nc1Nc1cccc(S(=O)(=O)NC(C)(C)C)c1 (library stock concentration (final ~1000-fold dilution): 10 mM)
IRF Lucia reporter activity [1, 4]: 0.996 | IRF Lucia reporter activity ([1]; agonist: LPS (TLR4) 0.1 ug/mL): 0.0609

Cc1cnc(Nc2ccc(N3CCN(C)CC3)cc2)nc1Nc1cccc(S(=O)(=O)NC(C)(C)C)c1
IRF Lucia reporter activity [2, 5]: 0.993

CC(C)N(CCC(=O)c1ccc2ccccc2c1)Cc1ccccc1.Cl (library stock concentration (final ~1000-fold dilution): 10 mM)
IRF Lucia reporter activity [3, 4]: 0.102 | IRF Lucia reporter activity ([3]; agonist: LPS (TLR4) 0.1 ug/mL): 0.211

CC(C)CCN1c2nc(Nc3cc(F)c(O)c(F)c3)ncc2N(C)C(=O)C1C (stereo unspecified)
IRF Lucia reporter activity [2, 5]: 0.111

CC(C)CCN1c2nc(Nc3cc(F)c(O)c(F)c3)ncc2N(C)C(=O)C1C (stereo unspecified) (library stock concentration (final ~1000-fold dilution): 10 mM)
IRF Lucia reporter activity [1, 4]: 0.0771 | IRF Lucia reporter activity ([1]; agonist: LPS (TLR4) 0.1 ug/mL): 0.0847

O=C1NC(=O)/C(=C/c2ccc(-c3ccc(F)cc3O)o2)S1 (library stock concentration (final ~1000-fold dilution): 10 mM)
IRF Lucia reporter activity [1, 4]: 0.758 | IRF Lucia reporter activity ([1]; agonist: LPS (TLR4) 0.1 ug/mL): 1.6

O=C1NC(=O)/C(=C/c2ccc(-c3ccc(F)cc3O)o2)S1
IRF Lucia reporter activity [2, 5]: 1.51

CCCCCCCCCCCCCCCCCC(=O)O (library stock concentration (final ~1000-fold dilution): 10 mM)
IRF Lucia reporter activity [1, 4]: 0.975 | IRF Lucia reporter activity ([1]; agonist: LPS (TLR4) 0.1 ug/mL): 1.19

CCCCCCCCCCCCCCCCCC(=O)O
IRF Lucia reporter activity [2, 5]: 0.969

O=C(C=Cn1cnc(-c2cc(C(F)(F)F)cc(C(F)(F)F)c2)n1)N1CC(F)(F)C1
IRF Lucia reporter activity [2, 5]: 0.182

O=C(C=Cn1cnc(-c2cc(C(F)(F)F)cc(C(F)(F)F)c2)n1)N1CC(F)(F)C1 (library stock concentration (final ~1000-fold dilution): 10 mM)
IRF Lucia reporter activity [1, 4]: 0.1 | IRF Lucia reporter activity ([1]; agonist: LPS (TLR4) 0.1 ug/mL): 0.213

CCn1c(=O)c(-c2ccc(-c3cncs3)cc2Cl)cc2cnc(Nc3ccc(N4CCN(C)CC4)cc3)nc21
IRF Lucia reporter activity [2, 5]: 0.671

CCn1c(=O)c(-c2ccc(-c3cncs3)cc2Cl)cc2cnc(Nc3ccc(N4CCN(C)CC4)cc3)nc21 (library stock concentration (final ~1000-fold dilution): 10 mM)
IRF Lucia reporter activity [1, 4]: 0.511 | IRF Lucia reporter activity ([1]; agonist: LPS (TLR4) 0.1 ug/mL): 0.274

CCN(CC)C(=O)N1CCN(C)CC1.O=C(O)CC(O)(CC(=O)O)C(=O)O (library stock concentration (final ~1000-fold dilution): 10 mM)
IRF Lucia reporter activity [1, 4]: 1.03 | IRF Lucia reporter activity ([1]; agonist: LPS (TLR4) 0.1 ug/mL): 1.26

CCN(CC)C(=O)N1CCN(C)CC1.O=C(O)CC(O)(CC(=O)O)C(=O)O
IRF Lucia reporter activity [2, 5]: 1.09

Nc1ccn(C2CCC(CO)O2)c(=O)n1 (stereo unspecified)
IRF Lucia reporter activity [2, 5]: 0.878

Nc1ccn(C2CCC(CO)O2)c(=O)n1 (stereo unspecified) (library stock concentration (final ~1000-fold dilution): 10 mM)
IRF Lucia reporter activity [1, 4]: 1.03 | IRF Lucia reporter activity ([1]; agonist: LPS (TLR4) 0.1 ug/mL): 1.01

CCCc1nc(C(C)(C)O)c(C(=O)OCc2oc(=O)oc2C)n1Cc1ccc(-c2ccccc2-c2nn[nH]n2)cc1 (library stock concentration (final ~1000-fold dilution): 10 mM)
IRF Lucia reporter activity [1, 4]: 1.06 | IRF Lucia reporter activity ([1]; agonist: LPS (TLR4) 0.1 ug/mL): 0.909

CCCc1nc(C(C)(C)O)c(C(=O)OCc2oc(=O)oc2C)n1Cc1ccc(-c2ccccc2-c2nn[nH]n2)cc1
IRF Lucia reporter activity [2, 5]: 1.01

O=C1/C(=C/c2cccs2)CC/C1=C\c1cccs1 (library stock concentration (final ~1000-fold dilution): 2 mM)
IRF Lucia reporter activity [1, 4]: 0.868 | IRF Lucia reporter activity ([1]; agonist: LPS (TLR4) 0.1 ug/mL): 0.91

O=C1/C(=C/c2cccs2)CC/C1=C\c1cccs1
IRF Lucia reporter activity ([2]; library stock concentration (final ~1000-fold dilution): 2 mM, cytotoxicity flag (confluency mask): not cytotoxic): 1.19

CC1(C)OC(=O)C=CC2(C)C1CC(=O)C1(C)C2CCC2(C)C(c3ccoc3)OC(=O)C3OC321 (stereo unspecified)
IRF Lucia reporter activity [2, 5]: 1.04

CC1(C)OC(=O)C=CC2(C)C1CC(=O)C1(C)C2CCC2(C)C(c3ccoc3)OC(=O)C3OC321 (stereo unspecified) (library stock concentration (final ~1000-fold dilution): 10 mM)
IRF Lucia reporter activity [1, 4]: 0.757 | IRF Lucia reporter activity ([1]; agonist: LPS (TLR4) 0.1 ug/mL): 1.07

O=C(Nc1cc(C(F)(F)F)cc(C(F)(F)F)c1)c1cc(Cl)ccc1O
IRF Lucia reporter activity ([2]; library stock concentration (final ~1000-fold dilution): 10 mM, cytotoxicity flag (confluency mask): cytotoxic (confluency <70% of control)): 3.54 ± 1.7

O=C(Nc1cc(C(F)(F)F)cc(C(F)(F)F)c1)c1cc(Cl)ccc1O (library stock concentration (final ~1000-fold dilution): 10 mM)
IRF Lucia reporter activity [3, 4]: 0.03 and 0.0207 | IRF Lucia reporter activity ([3]; agonist: LPS (TLR4) 0.1 ug/mL): 3.59 and 3.92

Cc1cnc(C(=O)NC2CCCCC/C=C\C3CC3(C(=O)NS(=O)(=O)C3CC3)NC(=O)C3CC(Oc4nc5ccccc5c5ccccc45)CN3C2=O)cn1 (stereo unspecified) (library stock concentration (final ~1000-fold dilution): 10 mM)
IRF Lucia reporter activity [1, 4]: 0.833 | IRF Lucia reporter activity ([1]; agonist: LPS (TLR4) 0.1 ug/mL): 1.15

Cc1cnc(C(=O)NC2CCCCC/C=C\C3CC3(C(=O)NS(=O)(=O)C3CC3)NC(=O)C3CC(Oc4nc5ccccc5c5ccccc45)CN3C2=O)cn1 (stereo unspecified)
IRF Lucia reporter activity [2, 5]: 0.981

COC1CC2CCC(C)C(O)(O2)C(=O)C(=O)N2CCCCC2C(=O)OC(C(C)CC2CCC(OCCO)C(OC)C2)CC(=O)C(C)C=C(C)C(O)C(OC)C(=O)C(C)CC(C)C=CC=CC=C1C (stereo unspecified) (library stock concentration (final ~1000-fold dilution): 10 mM)
IRF Lucia reporter activity [1, 4]: 1.28 | IRF Lucia reporter activity ([1]; agonist: LPS (TLR4) 0.1 ug/mL): 2.63

COC1CC2CCC(C)C(O)(O2)C(=O)C(=O)N2CCCCC2C(=O)OC(C(C)CC2CCC(OCCO)C(OC)C2)CC(=O)C(C)C=C(C)C(O)C(OC)C(=O)C(C)CC(C)C=CC=CC=C1C (stereo unspecified)
IRF Lucia reporter activity [2, 5]: 3.06

CN(C)C(=O)C(O)C(Cc1ccccc1)NC(=O)c1cc2cc(Cl)ccc2[nH]1 (stereo unspecified)
IRF Lucia reporter activity [2, 5]: 0.647

CN(C)C(=O)C(O)C(Cc1ccccc1)NC(=O)c1cc2cc(Cl)ccc2[nH]1 (stereo unspecified) (library stock concentration (final ~1000-fold dilution): 10 mM)
IRF Lucia reporter activity [1, 4]: 0.315 | IRF Lucia reporter activity ([1]; agonist: LPS (TLR4) 0.1 ug/mL): 0.547
